{
  "source": "PubChem BioAssay AID1347073",
  "about": "(National Center for Advancing Translational Sciences (NCATS), 2019)",
  "note": "About 200 (0.44%) of roughly 45,000 compounds were called active. Another 7% or so got no clear call; they are omitted. The call rests on the fitted dose curve; in most records, active means well fitted activation curve with a large enough effect; inconclusive means small, poorly fitted or top-dose-only effect; inactive means no such curve, though single readings can be large or run the other way. The list shows a part of the results.",
  "data": [
    {"experiment": "qHTS of TDP-43 Inhibitors: NCGC Sytravon Library Screen; further: 0% is about no effect; nearly all actives have a fitted effect of over 55% in size", "settings": "yeast TDP-43 toxicity rescue, BacTiter-Glo growth, 24 h; series mostly up to 46.1 µM; growth rescue (activation): at the top concentration", "summary_of_the_method": "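TDP-43-expressing yeast, pregrown in raffinose, seeded at OD600 0.02 in galactose medium with compound for 24 hr at 30 deg C. Growth read by BacTiter-Glo luminescence, so rescue of toxicity appears as activation.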", "values": [
      {"smiles": "O=C(NC1CC1)C1CC(=O)N(c2ccccc2)C1", "note": "(centres undefined)", "growth rescue (activation)": "inactive: 11.7%"},
      {"smiles": "CCC(C)(c1nnnn1-c1c(C)cccc1C)N(N=O)c1ccccc1Cl", "note": "(centres undefined)", "growth rescue (activation)": "inactive: 28.5%"},
      {"smiles": "COCCNC(=O)C1(C)CCCN(C(=O)c2ccc(OC)cc2OC)C1", "note": "(centres undefined)", "growth rescue (activation)": "inactive: -3.99%"},
      {"smiles": "O=C(C[n+]1cccc(CNC(=O)c2ccc(OC(F)F)cc2)c1)Nc1ccc(F)cc1", "growth rescue (activation)": "inactive: 0.854%"},
      {"smiles": "CN1CCc2c(sc(/N=C/c3cc(Cl)ccc3O)c2C#N)C1", "growth rescue (activation)": "inactive: -9.11%"},
      {"smiles": "COc1cccc(NC(=O)CN2C(=O)NC(c3ccccc3)(c3ccccc3)C2=O)c1", "growth rescue (activation)": "inactive: -21.3%"},
      {"smiles": "CCCNC(=O)OCCC12CC3CC(CC(C3)C1)C2", "growth rescue (activation)": "inactive: 20%"},
      {"smiles": "CCOc1cc(C(=S)N2CCOCC2)ccc1OS(=O)(=O)c1ccc(C)cc1", "growth rescue (activation)": "inactive: 31%"},
      {"smiles": "CCOC(=O)Nc1ccc2c(CN3C(=O)NC4(CCCC4)C3=O)cc(=O)oc2c1", "growth rescue (activation)": "inactive: -4.57%"},
      {"smiles": "COC(=O)C1=CN(C(C)c2ccccc2)C=C(C(=O)OC)C1c1cc(OC)c(OC)c(OC)c1", "note": "(centres undefined)", "growth rescue (activation)": "inactive: 1.18%"},
      {"smiles": "COc1c(C)cc(C(O)c2ncc(-c3ccccc3)[nH]2)cc1C", "note": "(centres undefined)", "growth rescue (activation)": "inactive: 1.16%"},
      {"smiles": "C=CCNC(=S)N1CCN(c2cc3c(cc2F)c(=O)c(C(=O)O)cn3CC)CC1", "growth rescue (activation)": "inactive: 20.7%"},
      {"smiles": "c1coc(-c2nnc(-c3ccco3)nn2)c1", "growth rescue (activation)": "inactive: 26.8%"},
      {"smiles": "O=C(NCCN1CCOCC1)c1ccc2c(c1)N(Cc1ccccc1F)C(=O)CS2", "growth rescue (activation)": "inactive: 12.1%"},
      {"smiles": "O=C(CSc1nncn1-c1cccnc1)Nc1ccccc1[N+](=O)[O-]", "growth rescue (activation)": "inactive: -12.6%"},
      {"smiles": "COc1cccc(/C=N/NC(=O)c2ccoc2C)c1", "growth rescue (activation)": "inactive: 4.1%"},
      {"smiles": "CC1C(=O)OC2C1CCC1(C)CCC(=O)C(C)C21", "note": "(centres undefined)", "growth rescue (activation)": "inactive: -5.49%"},
      {"smiles": "COc1ccc(S(=O)(=O)N2CCN(S(=O)(=O)c3ccc(C(F)(F)F)cc3)CC2)cc1C", "growth rescue (activation)": "inactive: -3.19%"},
      {"smiles": "Oc1c(Cl)cc(Cl)cc1/C=N/Nc1ncc(Br)cn1", "growth rescue (activation)": "inactive: -31.2%"},
      {"smiles": "CCOC(=O)C1CCN(C(=O)c2ccc3c(SCC(=O)O)c4c(nc3c2)CCCC4)CC1", "growth rescue (activation)": "inactive: -7.45%"},
      {"smiles": "Fc1ccc(-c2ccc(CNCc3ccccn3)o2)cc1Cl", "growth rescue (activation)": "inactive: 10.2%"},
      {"smiles": "COC(=O)c1c(-c2cccs2)csc1NC(=O)COc1ccccc1", "growth rescue (activation)": "inactive: -17.3%"},
      {"smiles": "CN(C)S(=O)(=O)c1cccc(C(=O)OCC(=O)NCc2ccc3c(c2)OCO3)c1", "growth rescue (activation)": "inactive: 13.4%"},
      {"smiles": "Cc1cccc(-n2nc([N+](=O)[O-])c(N3CCN(C(=O)c4ccco4)CC3)[n+]2[O-])c1", "growth rescue (activation)": "inactive: 14.1%"},
      {"smiles": "CCc1nnc(NC(=O)CN2C(=O)CCC2=O)s1", "growth rescue (activation)": "inactive: -22.3%"},
      {"smiles": "CCC(C)(C)n1nnnc1C(c1ccc2ncccc2c1)N1CCN(c2ccc(O)cc2)CC1", "note": "(centres undefined)", "growth rescue (activation)": "inactive: 1.93%"},
      {"smiles": "Cn1c(CCN2CCCCC2)nc2cc(NC(=O)Nc3ccccc3)ccc21", "growth rescue (activation)": "inactive: 8.95%"},
      {"smiles": "C/C(=N\\Nc1nc2ccccc2[nH]1)c1cccs1", "growth rescue (activation)": "inactive: 20.4%"},
      {"smiles": "Cc1cc(=O)[nH]c(N/N=C/c2ccc(O)c(O)c2)n1", "growth rescue (activation)": "inactive: 9.78%"},
      {"smiles": "Cc1cc(C)cc(NC(=S)N=Nc2c(O)n(C)c3ccc(S(=O)(=O)N4CCOCC4)cc23)c1", "growth rescue (activation)": "inactive: 13.9%"},
      {"smiles": "O=c1[nH]c(C2CCN(S(=O)(=O)c3ccc4c(c3)OCCO4)CC2)nc2c1nnn2Cc1ccc(F)cc1", "growth rescue (activation)": "inactive: 7.35%"},
      {"smiles": "O=C(CSc1nc2ncc(Br)cc2[nH]1)c1ccc([N+](=O)[O-])cc1", "growth rescue (activation)": "inactive: -27.3%"},
      {"smiles": "COC(=O)c1c(C)[nH]c(O)c1C=Nc1ccc(C(C)C)cc1", "growth rescue (activation)": "inactive: 11.5%"},
      {"smiles": "Cc1ccc(NC(=O)CCCN2C(=O)COc3ccc(C)cc32)c(C)c1", "growth rescue (activation)": "inactive: 26.2%"},
      {"smiles": "Cc1ccc(/C=C/C(=O)NCc2ccccn2)o1", "growth rescue (activation)": "inactive: 11.4%"},
      {"smiles": "Cc1cccc(C)c1NC(=O)CNC(=O)c1ccc2c(c1)NC(=O)CS2", "growth rescue (activation)": "inactive: 6.08%"},
      {"smiles": "O=C(c1cc(S(=O)(=O)N2CCOCC2)ccc1F)N1CCCc2ccccc21", "growth rescue (activation)": "inactive: 14.3%"},
      {"smiles": "Clc1ccccc1-c1nnc(CNC2CC2)o1", "growth rescue (activation)": "inactive: 9.27%"},
      {"smiles": "Cc1ccc(S(=O)(=O)NCC(=O)N2CCOCCOCCOCC2)cc1", "growth rescue (activation)": "inactive: 14.7%"},
      {"smiles": "COc1cc(OC)cc(C(=O)Nc2c(C)nn(-c3ccccc3)c2C)c1", "growth rescue (activation)": "inactive: -17.1%"},
      {"smiles": "O=C(O)c1ccc(N=Nc2c(O)[nH]c3ccccc23)cc1", "growth rescue (activation)": "inactive: 1.14%"},
      {"smiles": "CC(NC(=O)COc1ncnc2cc([N+](=O)[O-])ccc12)c1ccccc1", "note": "(centres undefined)", "growth rescue (activation)": "inactive: -3.31%"},
      {"smiles": "CC(=O)NC(c1ccc([N+](=O)[O-])cc1)c1c(O)ccc2ccccc12", "note": "(centres undefined)", "growth rescue (activation)": "inactive: -0.747%"},
      {"smiles": "Nc1nc(Nc2ccccc2F)nc(N2CCCC2)c1[N+](=O)[O-]", "growth rescue (activation)": "inactive: 12.9%"},
      {"smiles": "CCOc1ccc2nc(NC(=O)c3ccccn3)sc2c1", "growth rescue (activation)": "inactive: 24.2%"},
      {"smiles": "COc1ccc(NC(=O)C2CC(c3ccccc3O)=NO2)cc1OC", "note": "(centres undefined)", "growth rescue (activation)": "inactive: -2.71%"},
      {"smiles": "COc1cccc(C=Nc2ccc3c(c2)OCCO3)c1O", "growth rescue (activation)": "inactive: -1.57%"},
      {"smiles": "CC1CCCN(C(=O)COC(=O)Cc2ccc(Cl)cc2)C1", "note": "(centres undefined)", "growth rescue (activation)": "inactive: -2.09%"},
      {"smiles": "O=C(OCC(=O)N1CCOCC1)c1ccccc1OCc1ccc(Cl)cc1", "growth rescue (activation)": "inactive: 13.9%"},
      {"smiles": "O=C(O)c1cccnc1Sc1ncnc2sc3c(c12)CCC3", "growth rescue (activation)": "inactive: 28%"},
      {"smiles": "CC(C)c1ccc(/C=C/C(=O)NC2CCCCC2)cc1", "growth rescue (activation)": "inactive: 3.31%"},
      {"smiles": "CCN(CC)CCN1C(=O)C(O)=C(C(C)=O)C1c1ccccc1[N+](=O)[O-]", "note": "(centres undefined)", "growth rescue (activation)": "inactive: 14.7%"},
      {"smiles": "Cc1cc(C)cc(N(C(=O)c2csnn2)C(C(=O)NC(C)(C)C)c2cccnc2)c1", "note": "(centres undefined)", "growth rescue (activation)": "inactive: 18.8%"},
      {"smiles": "N#Cc1c(-c2cccc(Cl)c2)[nH]c(=S)[nH]c1=O", "growth rescue (activation)": "inactive: 4.44%"}
    ]}
  ]
}
